Drawing on patent publication US20230159453A1 (COCRYSTAL PHARMA, INC., priority 2020, published 2023), this text covers IC50 for 18 molecules.

In this test the target is Noro protease (Norovirus, UniProt Q83883). In words: Norovirus protease inhibition assay (Noro-Norwalk FRET protease assay). The settings on record: IC50 (μM), peptide substrate 10 μM, 90 minutes at 37° C., compounds 200 μM to 10.2 nM.
In turn, `CCOP(=O)(OCC)C(O)C(CC1CC2(CCN(C(C)=O)CC2)NC1=O)NC(=O)[C@H](CC(C)C)NC(=O)OCC(C)(C)c1cccc(Cl)c1` (stereo partly drawn) [Compound C84, 2-(3-Chlorophenyl)-2-methylpropyl ((2S)-1-((3-(8-acetyl-2-oxo-1,8-diazaspiro[4.5]decan-3-yl)-1-(diethoxyphosphoryl)-1-hydroxypropan-2-yl)amino)-4-methyl-1-oxopentan-2-yl)carbamate] returned an IC50 of 190 µM. As to `CC(C)C[C@H](NC(=O)OC1CCN(C(=O)OC(C)(C)C)c2ccccc21)C(=O)N[C@@H](C[C@@H]1CCNC1=O)C(=O)C(=O)NCc1ccccn1` (stereo partly drawn) [Compound C86, Tert-butyl 4-((((S)-1-(((S)-3,4-dioxo-1-((S)-2-oxopyrrolidin-3-yl)-4-((pyridin-2-ylmethyl)amino)butan-2-yl)amino)-4-methyl-1-oxopentan-2-yl)carbamoyl)oxy)-3,4-dihydroquinoline-1(2H)-carboxylate], the IC50 was over 200 µM.

`CC(C)C[C@H](NC(=O)OC1(Cc2cccc(Cl)c2)CC1)C(=O)N[C@@H](C[C@@H]1CCNC1=O)C(=O)C(N)=O` [Compound C88, 1-(3-Chlorobenzyl) cyclopropyl ((S)-1-(((S)-4-amino-3,4-dioxo-1-((S)-2-oxopyrrolidin-3-yl)butan-2-yl)amino)-4-methyl-1-oxopentan-2-yl)carbamate] registered an IC50 of over 200 µM. As for `CC(C)C[C@H](NC(=O)OCC(C)(C)c1cccc(Cl)c1)C(=O)N[C@@H](C[C@@H]1CCNC1=O)C(=O)C(N)=O` [Compound C90, 2-(3-chlorophenyl)-2-methylpropyl ((S)-1-(((S)-4-amino-3,4-dioxo-1-((S)-2-oxopyrrolidin-3-yl)butan-2-yl)amino)-4-methyl-1-oxopentan-2-yl)carbamate], the figure is 136 µM; as for `CCOP(=O)(OCC)C(O)C(CC1CC2(CCN(C(C)=O)CC2)NC1=O)NC(=O)[C@H](CC(C)C)NC(=O)c1cc2ccccc2[nH]1` (stereo partly drawn) [Compound C94, Diethyl (2-((S)-2-(1H-indole-2-carboxamido)-4-methylpentanamido)-3-(8-acetyl-2-oxo-1,8-diazaspiro[4.5]decan-3-yl)-1-hydroxypropyl)phosphonate], 156 µM; as for `CCOP(=O)(OCC)C(O)C(CC1CC2(CCN(C(C)=O)CC2)NC1=O)NC(=O)[C@H](CC(C)C)NC(=O)OCC1CCC(F)(F)CC1` (stereo partly drawn) [Compound C95, (4,4-Difluorocyclohexyl)methyl ((2S)-1-((3-(8-acetyl-2-oxo-1,8-diazaspiro[4.5]decan-3-yl)-1-(diethoxyphosphoryl)-1-hydroxypropan-2-yl)amino)-4-methyl-1-oxopentan-2-yl)carbamate], 116 µM. As for `CC(C)C[C@H](NC(=O)OCC(C)(C)c1cccc(Cl)c1)C(=O)N[C@H](C=O)C[C@@H]1CCNC1=O` [Compound C96, 2-(3-Chlorophenyl)-2-methylpropyl ((S)-4-methyl-1-oxo-1-(((S)-1-oxo-3-((S)-2-oxopyrrolidin-3-yl)propan-2-yl)amino)pentan-2-yl)carbamate], the figure is 4.1 µM.

Take `CC(C)C[C@H](NC(=O)N(Cc1ccccc1)C1CCN(C(=O)OC(C)(C)C)CC1)C(=O)N[C@@H](C[C@@H]1CCNC1=O)C(=O)C(=O)NC1CC1` [Compound C98, Tert-butyl 4-(1-benzyl-3-((S)-1-(((S)-4-(cyclopropylamino)-3,4-dioxo-1-((S)-2-oxopyrrolidin-3-yl)butan-2-yl)amino)-4-methyl-1-oxopentan-2-yl)ureido)piperidine-1-carboxylate]: the IC50 is over 200 µM. As for `CC(C)C[C@H](NC(=O)OC(Cc1ccccc1)c1ccccc1)C(=O)N[C@@H](C[C@@H]1CCNC1=O)C(=O)C(N)=O` (stereo partly drawn) [Compound C100, 1,2-Diphenylethyl ((S)-1-(((S)-4-amino-3,4-dioxo-1-((S)-2-oxopyrrolidin-3-yl)butan-2-yl)amino)-4-methyl-1-oxopentan-2-yl)carbamate], the figure is over 200 µM; as for `CC(C)C[C@H](NC(=O)OCC(C)(C)c1cccc(Cl)c1)C(=O)N[C@H](CO)C[C@@H]1CCNC1=O` [Compound C101, 2-(3-Chlorophenyl)-2-methylpropyl ((S)-1-(((S)-1-hydroxy-3-((S)-2-oxopyrrolidin-3-yl)propan-2-yl)amino)-4-methyl-1-oxopentan-2-yl)carbamate], over 200 µM. In the case of `CC(=O)N1CC2(CC(CC(C=O)NC(=O)[C@H](CC(C)C)NC(=O)OCc3cccc(Cl)c3)C(=O)N2)C1` (stereo partly drawn) [Compound C102, 3-chlorobenzyl ((2S)-1-((1-(2-acetyl-6-oxo-2,5-diazaspiro[3.4]octan-7-yl)-3-oxopropan-2-yl)amino)-4-methyl-1-oxopentan-2-yl)carbamate] it was 6.9 µM; in that of `CC(C)(COC(=O)N[C@H](C(=O)N[C@H](C=O)C[C@@H]1CCNC1=O)C(C)(C)C)c1cccc(Cl)c1` [Compound C103, 2-(3-Chlorophenyl)-2-methylpropyl ((S)-3,3-dimethyl-1-oxo-1-(((S)-1-oxo-3-((S)-2-oxopyrrolidin-3-yl)propan-2-yl)amino)butan-2-yl)carbamate], 21.3 µM. `CC(C)C[C@H](NC(=O)OC(Cc1cccc(Cl)c1)c1ccccc1)C(=O)N[C@H](C=O)C[C@@H]1CCNC1=O` (stereo partly drawn) [Compound C104, 2-(3-Chlorophenyl)-1-phenylethyl ((S)-4-methyl-1-oxo-1-(((S)-1-oxo-3-((S)-2-oxopyrrolidin-3-yl)propan-2-yl)amino)pentan-2-yl) carbamate] gave an IC50 of 2.8 µM. As for `CC(C)(c1cccc(Cl)c1)C(OC(=O)N[C@@H](CC1CCCCC1)C(=O)N[C@H](C=O)C[C@@H]1CCNC1=O)c1cccc(F)c1` (stereo partly drawn) [Compound C105, 2-(3-Chlorophenyl)-1-(3-fluorophenyl)-2-methylpropyl ((S)-3-cyclohexyl-1-oxo-1-(((S)-1-oxo-3-((S)-2-oxopyrrolidin-3-yl)propan-2-yl)amino)propan-2-yl)carbamate], the figure is 2.7 µM; as for `CC(C)(c1cccc(Cl)c1)C(OC(=O)N[C@@H](CC1CCCCC1)C(=O)N[C@H](C=O)C[C@@H]1CCNC1=O)c1cccc(Cl)c1` (stereo partly drawn) [Compound C106, 1,2-Bis(3-chlorophenyl)-2-methylpropyl ((S)-3-cyclohexyl-1-oxo-1-(((S)-1-oxo-3-((S)-2-oxopyrrolidin-3-yl)propan-2-yl)amino)propan-2-yl)carbamate], 1.8 µM. `CC(C)C[C@H](NC(=O)OCC1CCC(F)(F)CC1)C(=O)NC(C)(C=O)CC1CCNC1=O` (stereo partly drawn) [Compound C107, (4,4-Difluorocyclohexyl) methyl ((2S)-4-methyl-1-((2-methyl-1-oxo-3-(2-oxopyrrolidin-3-yl)propan-2-yl)amino)-1-oxopentan-2-yl) carbamate]: half-maximal inhibition (IC50) required 85.5 µM. This IC50 is about 48-fold higher than that of the molecule before. For the molecule `CC(C)C[C@H](NC(=O)OC(c1ccccc1)C(C)(C)c1cccc(Cl)c1)C(=O)N[C@H](C=O)C[C@@H]1CCNC1=O` (stereo partly drawn) [Compound C108, 2-(3-Chlorophenyl)-2-methyl-1-phenylpropyl ((S)-4-methyl-1-oxo-1-(((S)-1-oxo-3-((S)-2-oxopyrrolidin-3-yl)propan-2-yl)amino)pentan-2-yl) carbamate], the IC50 was 0.979 µM.

Regarding `O=C[C@H](C[C@@H]1CCNC1=O)NC(=O)[C@H](CC1CCCCC1)NC(=O)OC(Cc1cccc(Cl)c1)c1ccccc1` (stereo partly drawn) [Compound C109, 2-(3-Chlorophenyl)-1-phenylethyl ((S)-3-cyclohexyl-1-oxo-1-(((S)-1-oxo-3-((S)-2-oxopyrrolidin-3-yl)propan-2-yl)amino)propan-2-yl)carbamate], the IC50 was found to be 1.4 µM.

Broadly, the IC50 is the concentration that gives 50% inhibition. Lower therefore signals greater potency in that assay.
